{"source": "the supplement of paper PMC8728848", "test_in_all_cases": "glycan array binding signal (z-score within array); higher = stronger binding", "settings_in_all_cases": "glycan notation: IUPAC condensed, linker removed", "key": {"GalNAc(b1-6)GalNAc": {"target": "GalNAc(b1-6)GalNAc", "outline": "(§1)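 The Consortium for Functional Glycomics database supplied 3228 glycan arrays, of which those lacking an available protein sequence were dropped. The binding signal, a within-array Z-score, was averaged across arrays of the same protein sequence and across linkers. Negative scores can be read as non-binding.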"}, "Glc(a1-4)Glc": {"target": "Glc(a1-4)Glc", "outline": "as §1"}, "[1]": {"target": "Glc(a1-4)Glc(a1-4)Glc(a1-4)Glc", "outline": "as §1"}, "Glc(a1-6)Glc(a1-6)Glc": {"target": "Glc(a1-6)Glc(a1-6)Glc", "outline": "as §1"}, "[2]": {"target": "Glc(a1-6)Glc(a1-6)Glc(a1-6)Glc", "outline": "as §1"}, "Glc(b1-4)Glc": {"target": "Glc(b1-4)Glc", "outline": "as §1"}, "Glc(b1-6)Glc": {"target": "Glc(b1-6)Glc", "outline": "as §1"}, "GlcA(b1-3)Gal": {"target": "GlcA(b1-3)Gal", "outline": "as §1"}, "GlcA(b1-3)GlcNAc": {"target": "GlcA(b1-3)GlcNAc", "outline": "as §1"}, "GlcA(b1-6)Gal": {"target": "GlcA(b1-6)Gal", "outline": "as §1"}, "[3]": {"target": "GlcNAc(a1-3)Gal(b1-4)GlcNAc", "outline": "as §1"}, "[4]": {"target": "GlcNAc(a1-4)Gal(b1-3)GlcNAc", "outline": "as §1"}, "[5]": {"target": "GlcNAc(a1-4)Gal(b1-4)GalNAc", "outline": "as §1"}, "[6]": {"target": "GlcNAc(a1-4)Gal(b1-4)GlcNAc", "outline": "as §1"}, "[7]": {"target": "GlcNAc(a1-4)Gal(b1-4)GlcNAc(b1-3)Gal(b1-4)Glc", "outline": "as §1"}, "[8]": {"target": "GlcNAc(a1-4)Gal(b1-4)GlcNAc(b1-3)Gal(b1-4)GlcNAc", "outline": "as §1"}, "[9]": {"target": "GlcNAc(a1-4)Gal(b1-4)GlcNAc(b1-3)Gal(b1-4)GlcNAc(b1-3)Gal(b1-4)GlcNAc", "outline": "as §1"}, "[10]": {"target": "GlcNAc(a1-4)Gal(b1-4)GlcNAc(b1-3)Gal(b1-4)[Fuc(a1-3)]GlcNAc(b1-3)Gal(b1-4)[Fuc(a1-3)]GlcNAc", "outline": "as §1"}, "[11]": {"target": "GlcNAc(a1-6)Gal(b1-4)GlcNAc", "outline": "as §1"}, "[12]": {"target": "GlcNAc(b1-2)Gal(b1-3)GalNAc", "outline": "as §1"}, "[13]": {"target": "GlcNAc(b1-2)Man(a1-3)[GlcNAc(b1-2)Man(a1-6)]Man(b1-4)GlcNAc(b1-4)GlcNAc", "outline": "as §1"}, "[14]": {"target": "GlcNAc(b1-2)Man(a1-3)[GlcNAc(b1-2)Man(a1-6)]Man(b1-4)GlcNAc(b1-4)[Fuc(a1-6)]GlcNAc", "outline": "as §1"}, "[15]": {"target": "GlcNAc(b1-2)Man(a1-3)[GlcNAc(b1-4)][GlcNAc(b1-2)Man(a1-6)]Man(b1-4)GlcNAc(b1-4)GlcNAc", "outline": "as §1"}, "[16]": {"target": "GlcNAc(b1-2)[GlcNAc(b1-4)]Man(a1-3)[GlcNAc(b1-2)Man(a1-6)]Man(b1-4)GlcNAc(b1-4)GlcNAc", "outline": "as §1"}, "[17]": {"target": "GlcNAc(b1-2)[GlcNAc(b1-4)]Man(a1-3)[GlcNAc(b1-4)][GlcNAc(b1-2)Man(a1-6)]Man(b1-4)GlcNAc(b1-4)GlcNAc", "outline": "as §1"}, "[18]": {"target": "GlcNAc(b1-2)[GlcNAc(b1-4)]Man(a1-3)[GlcNAc(b1-4)][GlcNAc(b1-2)[GlcNAc(b1-6)]Man(a1-6)]Man(b1-4)GlcNAc(b1-4)GlcNAc", "outline": "as §1"}, "[19]": {"target": "GlcNAc(b1-2)[GlcNAc(b1-6)]Man(a1-6)[GlcNAc(b1-2)Man(a1-3)]Man(b1-4)GlcNAc(b1-4)GlcNAc", "outline": "as §1"}, "[20]": {"target": "GlcNAc(b1-2)[GlcNAc(b1-6)]Man(a1-6)[GlcNAc(b1-2)Man(a1-3)][GlcNAc(b1-4)]Man(b1-4)GlcNAc(b1-4)GlcNAc", "outline": "as §1"}, "GlcNAc(b1-3)Gal": {"target": "GlcNAc(b1-3)Gal", "outline": "as §1"}, "[21]": {"target": "GlcNAc(b1-3)Gal(b1-3)GalNAc", "outline": "as §1"}, "GlcNAc(b1-3)Gal(b1-4)Glc": {"target": "GlcNAc(b1-3)Gal(b1-4)Glc", "outline": "as §1"}, "[22]": {"target": "GlcNAc(b1-3)Gal(b1-4)GlcNAc", "outline": "as §1"}, "[23]": {"target": "GlcNAc(b1-3)Gal(b1-4)GlcNAc(b1-3)Gal(b1-4)GlcNAc", "outline": "as §1"}, "GlcNAc(b1-3)GalNAc": {"target": "GlcNAc(b1-3)GalNAc", "outline": "as §1"}, "GlcNAc(b1-3)Man": {"target": "GlcNAc(b1-3)Man", "outline": "as §1"}, "[24]": {"target": "GlcNAc(b1-3)[GlcNAc(b1-4)][GlcNAc(b1-6)]GlcNAc", "outline": "as §1"}, "[25]": {"target": "GlcNAc(b1-3)[GlcNAc(b1-6)]Gal(b1-4)GlcNAc", "outline": "as §1"}, "[26]": {"target": "GlcNAc(b1-3)[GlcNAc(b1-6)]GalNAc", "outline": "as §1"}, "[27]": {"target": "GlcNAc(b1-4)Gal(b1-4)GlcNAc", "outline": "as §1"}, "GlcNAc(b1-4)GlcNAc": {"target": "GlcNAc(b1-4)GlcNAc", "outline": "as §1"}}, "note": "This is one part of the list."}
{"binder": "GNAT (Pseudomonas aeruginosa), Q9HV14 (protein) MQLSHRPAETGDLETVAGFPQDRDELFYCYPKAIWPFSVAQLAAAIAERRGSTVAVHDGQVLGFANFYQWQHGDFCALGNMMVAPAARGLGVARYLIGVMENLAREQYKARLMKISCFNANAAGLLLYTQLGYQPRAIAERHDPDGRRVALIQMDKPLEP", "values": [{"measurement": "glycan array binding signal (z-score)", "setting": "GalNAc(b1-6)GalNAc", "value": -0.454}, {"measurement": "glycan array binding signal (z-score)", "setting": "Glc(a1-4)Glc", "value": -0.383}, {"measurement": "glycan array binding signal (z-score)", "setting": "[1]", "value": -0.475}, {"measurement": "glycan array binding signal (z-score)", "setting": "Glc(a1-6)Glc(a1-6)Glc", "value": -0.33}, {"measurement": "glycan array binding signal (z-score)", "setting": "[2]", "value": -0.327}, {"measurement": "glycan array binding signal (z-score)", "setting": "Glc(b1-4)Glc", "value": -0.449}, {"measurement": "glycan array binding signal (z-score)", "setting": "Glc(b1-6)Glc", "value": -0.226}, {"measurement": "glycan array binding signal (z-score)", "setting": "GlcA(b1-3)Gal", "value": -0.072}, {"measurement": "glycan array binding signal (z-score)", "setting": "GlcA(b1-3)GlcNAc", "value": -0.352}, {"measurement": "glycan array binding signal (z-score)", "setting": "GlcA(b1-6)Gal", "value": -0.305}, {"measurement": "glycan array binding signal (z-score)", "setting": "[3]", "value": -0.432}, {"measurement": "glycan array binding signal (z-score)", "setting": "[4]", "value": -0.356}, {"measurement": "glycan array binding signal (z-score)", "setting": "[5]", "value": -0.256}, {"measurement": "glycan array binding signal (z-score)", "setting": "[6]", "value": -0.175}, {"measurement": "glycan array binding signal (z-score)", "setting": "[7]", "value": -0.338}, {"measurement": "glycan array binding signal (z-score)", "setting": "[8]", "value": -0.087}, {"measurement": "glycan array binding signal (z-score)", "setting": "[9]", "value": -0.299}, {"measurement": "glycan array binding signal (z-score)", "setting": "[10]", "value": 3.72}, {"measurement": "glycan array binding signal (z-score)", "setting": "[11]", "value": -0.405}, {"measurement": "glycan array binding signal (z-score)", "setting": "[12]", "value": -0.405}, {"measurement": "glycan array binding signal (z-score)", "setting": "[13]", "value": -0.357}, {"measurement": "glycan array binding signal (z-score)", "setting": "[14]", "value": -0.026}, {"measurement": "glycan array binding signal (z-score)", "setting": "[15]", "value": -0.416}, {"measurement": "glycan array binding signal (z-score)", "setting": "[16]", "value": -0.391}, {"measurement": "glycan array binding signal (z-score)", "setting": "[17]", "value": -0.318}, {"measurement": "glycan array binding signal (z-score)", "setting": "[18]", "value": -0.25}, {"measurement": "glycan array binding signal (z-score)", "setting": "[19]", "value": -0.257}, {"measurement": "glycan array binding signal (z-score)", "setting": "[20]", "value": -0.348}, {"measurement": "glycan array binding signal (z-score)", "setting": "GlcNAc(b1-3)Gal", "value": -0.354}, {"measurement": "glycan array binding signal (z-score)", "setting": "[21]", "value": -0.422}, {"measurement": "glycan array binding signal (z-score)", "setting": "GlcNAc(b1-3)Gal(b1-4)Glc", "value": -0.436}, {"measurement": "glycan array binding signal (z-score)", "setting": "[22]", "value": -0.38}, {"measurement": "glycan array binding signal (z-score)", "setting": "[23]", "value": -0.391}, {"measurement": "glycan array binding signal (z-score)", "setting": "GlcNAc(b1-3)GalNAc", "value": -0.358}, {"measurement": "glycan array binding signal (z-score)", "setting": "GlcNAc(b1-3)Man", "value": -0.257}, {"measurement": "glycan array binding signal (z-score)", "setting": "[24]", "value": -0.4}, {"measurement": "glycan array binding signal (z-score)", "setting": "[25]", "value": -0.389}, {"measurement": "glycan array binding signal (z-score)", "setting": "[26]", "value": -0.346}, {"measurement": "glycan array binding signal (z-score)", "setting": "[27]", "value": -0.345}, {"measurement": "glycan array binding signal (z-score)", "setting": "GlcNAc(b1-4)GlcNAc", "value": -0.245}]}
